Consider 24 molecules from PMC4336329 (PLoS ONE, 2015).

Structures are written as SMILES. The whole screen tested about 310,000 compounds, of which about 2,200 (0.71%) showed an effect of 50% or more. Effects have a minus sign here. This is one part of the list.

In this experiment the target is human ether-à-go-go-related gene (hERG) potassium channel (human, UniProt Q12809). Nature of the experiment: primary screen, population patch clamp on CHO cells stably expressing hERG.
human ether-à-go-go-related gene (hERG) potassium channel, sequence (Q12809 whole entry, looked up): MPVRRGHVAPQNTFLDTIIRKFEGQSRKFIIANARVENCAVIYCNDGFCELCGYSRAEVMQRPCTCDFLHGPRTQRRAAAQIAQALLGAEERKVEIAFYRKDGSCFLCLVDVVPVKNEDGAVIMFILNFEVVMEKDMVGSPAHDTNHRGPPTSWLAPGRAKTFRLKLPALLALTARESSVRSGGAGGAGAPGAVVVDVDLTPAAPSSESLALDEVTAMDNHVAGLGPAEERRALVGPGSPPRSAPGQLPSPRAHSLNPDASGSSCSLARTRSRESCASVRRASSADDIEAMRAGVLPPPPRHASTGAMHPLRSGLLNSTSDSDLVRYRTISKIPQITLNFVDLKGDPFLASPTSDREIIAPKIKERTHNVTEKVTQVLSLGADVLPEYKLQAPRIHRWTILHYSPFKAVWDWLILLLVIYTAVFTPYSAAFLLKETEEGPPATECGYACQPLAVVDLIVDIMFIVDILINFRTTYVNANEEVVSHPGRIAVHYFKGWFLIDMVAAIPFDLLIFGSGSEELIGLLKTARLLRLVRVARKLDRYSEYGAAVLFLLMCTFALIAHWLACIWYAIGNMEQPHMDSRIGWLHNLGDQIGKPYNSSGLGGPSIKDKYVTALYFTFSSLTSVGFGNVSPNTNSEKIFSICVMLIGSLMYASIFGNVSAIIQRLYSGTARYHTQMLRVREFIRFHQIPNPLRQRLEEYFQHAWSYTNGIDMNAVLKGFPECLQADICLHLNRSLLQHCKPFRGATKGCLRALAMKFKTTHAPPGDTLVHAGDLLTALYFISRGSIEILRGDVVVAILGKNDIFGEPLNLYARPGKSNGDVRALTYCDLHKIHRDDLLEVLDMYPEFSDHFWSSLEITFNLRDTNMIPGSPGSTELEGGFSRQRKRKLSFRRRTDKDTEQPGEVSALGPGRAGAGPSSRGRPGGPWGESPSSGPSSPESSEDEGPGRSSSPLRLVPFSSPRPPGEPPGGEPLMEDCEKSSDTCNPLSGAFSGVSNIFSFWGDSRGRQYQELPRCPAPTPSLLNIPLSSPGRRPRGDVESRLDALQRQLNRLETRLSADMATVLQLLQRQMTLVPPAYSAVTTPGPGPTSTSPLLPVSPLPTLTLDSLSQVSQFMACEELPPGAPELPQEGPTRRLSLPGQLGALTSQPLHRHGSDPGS
For `O=C(CN(Cc1ccccc1)C(=O)c1cc2c(s1)CCC2)NCc1cccs1`, the “hERG current change (%, negative = inhibition) at 1uM” value was determined as 5.46%.

Regarding `CCCCN1C(N)=NC[C@H]1Cc1ccc(O)cc1`, the “hERG current change (%, negative = inhibition) at 1uM” value was 14.3%. With `COc1cc2c(cc1NC(=O)/C=C/c1ccccc1)oc1ccccc12` the figure was 14.4%; with `CC(/C=C1\SC(=S)N(CCC(=O)Nc2ccc(O)cc2)C1=O)=C\c1ccccc1`, 17%; with `COCCNc1cc(C)c(C#N)c2nc3ccccc3n12`, -0.748%.

As to `O=C(Nc1nnc(-c2ccccn2)o1)c1cccc(Br)c1`, the “hERG current change (%, negative = inhibition) at 1uM” value is 9.48%. For `COc1ccccc1Nc1nc(N2CCOCC2)nc(N2CCOCC2)n1.Cl`, the “hERG current change (%, negative = inhibition) at 1uM” value amounted to 13.1%. With `COc1cc(C(=O)OCC(=O)N(CC(C)C)C2CCS(=O)(=O)C2)cc(OC)c1C` (stereo not drawn) the figure was -0.238%. Regarding `Fc1ccc(NC(=S)Nc2cccnc2)cc1Cl`, the “hERG current change (%, negative = inhibition) at 1uM” value worked out at 5.8%. With `O=S(=O)(c1cccc(NC(=S)N2CCN(c3ccccc3)CC2)c1)C(F)F` the figure was 4%.

`O=C(Oc1ccc([N+](=O)[O-])cc1)N1CCC(N2CCCCC2)CC1`: the “hERG current change (%, negative = inhibition) at 1uM” value is -38.5%. For `O=C1/C(=C/c2ccc(F)cc2)SC(=S)N1CC(=O)N1CCCCC1c1cccnc1` (stereo not drawn) the value was 12.6%.

As to `CCN(Cc1ccccc1)S(=O)(=O)c1cn(C)cn1`, the “hERG current change (%, negative = inhibition) at 1uM” value is recorded as 11.5%.

Turning to `CC(c1ccccc1)n1cc(C(=O)NCc2ccncc2)nn1` (stereo not drawn), the “hERG current change (%, negative = inhibition) at 1uM” value is recorded as 2.06%.

In the case of `S=C1NCCc2ccc(Cl)cc2C1c1ccccc1Cl` (stereo not drawn), the “hERG current change (%, negative = inhibition) at 1uM” value was found to be 13.6%. For `CCCN(CCO)C1CCN(CCc2ccccc2)CC1` the value was 9.96%; for `CC(=O)c1cc(F)c(N2CCN(C(=O)COc3ccccc3F)CC2)cc1C`, 2.93%; for `COc1ccc(NC(=S)NCC2CCN(c3ccc(OC)cc3)C2)cc1` (stereo not drawn), 2.84%.

On to `CCn1c(Cn2nnc(-c3ccccc3)n2)nnc1SCc1ccc(Cl)c(Cl)c1`, for which the “hERG current change (%, negative = inhibition) at 1uM” value was determined as 2.07%. For `CCOC(=O)C1CCN(S(=O)(=O)c2ccc(Cl)s2)CC1` the value was 12.4%; for `O=C(CCCC(=O)N(CC(=O)NC1CCCCC1)c1cccc(F)c1)Nc1ccccn1`, 0.626%; for `COc1ccc(C2C(C#N)=C(/N=C/N3CCOCC3)OC3=C2C(=O)CC(C)(C)C3)cc1OC` (stereo not drawn), -0.831%.

Regarding `CC(C)(C)c1cc(C(=O)C[n+]2ccc(C(=O)NCCCO)cc2)cc(C(C)(C)C)c1O.[Br-]`, the “hERG current change (%, negative = inhibition) at 1uM” value is given as 13.4%. On to `Cc1ccc(OCCSCc2nnc(NC(=O)Nc3cccc(Cl)c3)s2)cc1`, for which the “hERG current change (%, negative = inhibition) at 1uM” value came to 1.73%.
